Measured values: the supplement of paper PMC12217912
The list shows a part of the results. The full chains were built here from the parent and the listed change. Values near 0.05 are background.

B1: TEV protease; numbered along this chain (parent)
chain: MGESLFKGPRDYNPISSSICHLTNESDGHTTSLYGIGFGPFIITNKHLFRRNNGTLVVQSLHGVFKVKDTTTLQQHLVDGRDMIIIRMPKDFPPFPQKLKFREPQREERICLVTTNFQTKSMSSMVSDTSCTFPSGDGIFWKHWIQTKDGQCGSPLVSTRDGFIVGIHSASNFTNTNNYFTSVPKNFMELLTNQEAQQWVSGWRLNADSVLWGGHKVFMVKPEEPFQPVKEATQL

Variants of: B1
Experiment: raw area under fraction-flipped curve 0-4 h after induction (AUC4h, not background-subtracted), DNA-recorder readout of cleavage of the substrate (dimensionless); higher = more cleavage of the substrate by the protease variant
Details: temperature: 34 °C; time window: 0-4 h after rhamnose induction
Protocol: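 In vivo DNA recorder in E. coli TOP10(DE3) ΔrhaA at 34 °C. Each TEVp single-site mutant (parent TEVp 0) is paired with a single-site variant of the 7-mer TEVs (canonical ENLYFQ|S). The substrate sits between flexible linkers in a Bxb1-sfGFP-TEVs-SsrA fusion, so cleavage stabilises Bxb1 and speeds flipping of a recombination array, read by NGS. The value is the raw area under the fraction-flipped curve over 0-4 h after rhamnose induction (AUC4h), with ≥20 reads per time point. It is not background-subtracted; inactive controls average about 0.047.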
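Further: Bxb1 expression induced with 0.2% (w/v) L-rhamnose at OD600 near 0.5, cultures sampled hourly, flipped fraction per protease–substrate barcode pair counted by paired-end Illumina sequencing.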

| Variant | area with substrate ANLYFQS | area with substrate CNLYFQS | area with substrate FNLYFQS | area with substrate GNLYFQS | area with substrate INLYFQS | area with substrate KNLYFQS | area with substrate LNLYFQS | area with substrate MNLYFQS | area with substrate NNLYFQS | area with substrate SNLYFQS | area with substrate VNLYFQS | area with substrate YNLYFQS | area with substrate HNLYFQS | area with substrate TNLYFQS | area with substrate WNLYFQS | area with substrate DNLYFQS | area with substrate PNLYFQS | area with substrate QNLYFQS | area with substrate RNLYFQS |
| --- | --- | --- | --- | --- | --- | --- | --- | --- | --- | --- | --- | --- | --- | --- | --- | --- | --- | --- | --- |
| V183E | 0.0385 | 0.0493 | 0.047 | 0.0501 | 0.0408 | 0.0484 | 0.0455 | 0.0498 | 0.0426 | 0.0507 | 0.0577 | 0.0464 | – | – | – | – | – | – | – |
| V183F | 0.0809 | 0.0768 | 0.0598 | 0.0029 | 0.0961 | – | 0.0607 | 0.0592 | – | 0.055 | 0.0524 | – | 0.0603 | 0.0483 | 0.052 | – | – | – | – |
| W212F | 0.0635 | – | – | – | 0.0657 | 0.0623 | 0.0849 | 0.0521 | – | 0.0576 | – | 0.0576 | 0.0572 | 0.0642 | 0.0626 | 0.0714 | 0.0717 | 0.056 | – |
| W212D | 0.0551 | 0.0456 | 0.0558 | – | 0.0727 | – | 0.072 | 0.0607 | – | 0.0722 | 0.0561 | – | 0.0417 | 0.0423 | 0.0595 | – | 0.0744 | 0.0669 | – |
| M188Y | 0.062 | 0.0436 | 0.063 | 0.0595 | 0.056 | – | 0.0644 | 0.0556 | 0.0673 | – | – | – | 0.0638 | 0.0591 | 0.0598 | – | 0.0648 | – | – |
| F187C | 0.0941 | 0.074 | 0.0574 | 0.0586 | – | – | – | – | – | – | – | 0.0794 | 0.0572 | 0.0781 | 0.0287 | – | – | – | – |
| F187H | 0.0227 | – | – | 0.074 | 0.0381 | 0.064 | 0.0479 | 0.0567 | 0.0499 | 0.0608 | 0.0596 | 0.0463 | 0.0471 | 0.0666 | 0.0507 | 0.0517 | 0.06 | 0.0659 | – |
| F187N | 0.0748 | 0.062 | 0.054 | – | 0.0581 | 0.0645 | 0.0247 | – | 0.0537 | – | – | 0.0617 | 0.105 | 0.0422 | 0.0438 | – | 0.0509 | 0.021 | – |
| T181Y | 0.0562 | 0.0806 | 0.0848 | – | – | 0.0535 | – | 0.0593 | 0.0412 | 0.0548 | – | 0.047 | 0.0617 | 0.0564 | 0.0676 | – | 0.05 | – | – |
| T181A | 0.0637 | – | – | – | 0.0341 | 0.0767 | 0.0556 | – | 0.0783 | – | 0.077 | – | – | – | – | 0.128 | 0.0584 | 0.0773 | – |
| L205E | 0.0952 | 0.0775 | – | 0.045 | 0.0685 | – | 0.0651 | – | – | 0.0642 | – | – | – | – | 0.0504 | – | 0.0705 | 0.0512 | – |
| N193I | 0.0457 | 0.0836 | – | 0.0711 | – | 0.072 | 0.0603 | 0.0729 | – | 0.0648 | 0.0639 | – | – | 0.0692 | 0.0509 | 0.0536 | 0.0596 | – | – |
| T176W | 0.0692 | – | – | 0.0539 | 0.0539 | – | – | 0.0485 | – | 0.0436 | – | – | 0.0597 | 0.0517 | 0.0567 | – | – | – | 0.0664 |
| Y179T | 0.0683 | 0.0595 | – | 0.0572 | – | – | – | – | 0.0632 | – | 0.044 | – | 0.0481 | 0.0638 | – | – | – | – | – |
| Y179L | 0.0511 | 0.057 | – | – | – | – | – | – | – | – | – | 0.0537 | 0.0578 | 0.0555 | – | – | – | – | 0.0515 |
| Y179Q | 0.0174 | – | 0.0656 | – | 0.0611 | 0.0592 | 0.0494 | – | 0.0642 | 0.0647 | 0.0583 | 0.0628 | 0.0617 | 0.0637 | 0.0594 | 0.0602 | 0.0605 | – | 0.0506 |

| Variant | area with substrate ANLYFQS | area with substrate CNLYFQS | area with substrate FNLYFQS | area with substrate GNLYFQS | area with substrate INLYFQS | area with substrate KNLYFQS | area with substrate LNLYFQS | area with substrate MNLYFQS | area with substrate NNLYFQS | area with substrate SNLYFQS | area with substrate VNLYFQS | area with substrate YNLYFQS | area with substrate HNLYFQS | area with substrate TNLYFQS | area with substrate WNLYFQS | area with substrate DNLYFQS | area with substrate PNLYFQS | area with substrate QNLYFQS | area with substrate RNLYFQS |
| --- | --- | --- | --- | --- | --- | --- | --- | --- | --- | --- | --- | --- | --- | --- | --- | --- | --- | --- | --- |
| N186E | 0.0519 | 0.0605 | – | – | – | – | – | – | 0.0783 | – | 0.0426 | – | 0.0634 | 0.0583 | 0.0796 | – | – | 0.082 | – |
| N186W | 0.0741 | 0.0621 | – | 0.0454 | – | – | 0.0642 | 0.0663 | 0.0372 | 0.0992 | – | – | 0.0709 | 0.059 | 0.0391 | – | 0.0597 | – | – |
| G213D | 0.0672 | 0.0437 | – | – | – | – | – | 0.0963 | 0.0564 | 0.0906 | 0.0598 | 0.0672 | 0.0646 | – | 0.0537 | – | 0.0837 | 0.0675 | – |
| G213M | 0.0382 | 0.0532 | 0.0459 | 0.0633 | 0.056 | – | – | 0.052 | 0.0569 | – | 0.0435 | 0.0452 | 0.0638 | 0.0489 | 0.0503 | – | 0.0545 | 0.0428 | – |
| G213W | 0.0308 | 0.0605 | 0.0477 | 0.0556 | – | 0.062 | 0.058 | – | 0.0512 | 0.0556 | – | 0.062 | 0.0521 | 0.0551 | 0.0597 | – | 0.0584 | 0.045 | – |
| W199D | 0.0693 | – | – | – | – | – | – | 0.049 | 0.0609 | 0.0677 | – | 0.0508 | 0.0607 | 0.0611 | 0.0474 | 0.0559 | 0.0576 | – | – |
| W203E | 0.0542 | 0.063 | – | 0.0707 | 0.0569 | 0.0543 | – | – | – | – | – | 0.0743 | 0.0516 | 0.0666 | 0.0552 | – | 0.069 | 0.0602 | 0.0494 |
| W203C | 0.0435 | – | 0.0518 | 0.063 | 0.0569 | – | – | 0.0559 | 0.0535 | 0.0633 | 0.0723 | 0.0559 | 0.0437 | 0.0567 | 0.0706 | 0.0531 | 0.065 | 0.0552 | – |
| R204Q | 0.0695 | – | – | 0.0278 | 0.0656 | 0.0674 | 0.0721 | 0.0785 | 0.0471 | 0.0648 | – | – | 0.0525 | – | 0.0607 | 0.0904 | 0.0701 | – | – |
| R204W | 0.052 | 0.0654 | 0.0688 | – | 0.0651 | 0.0676 | – | – | – | 0.0739 | 0.0694 | 0.063 | 0.0653 | 0.0561 | 0.0562 | – | 0.07 | 0.082 | – |
| S201I | 0.0613 | 0.0631 | – | – | – | – | 0.057 | – | 0.0687 | 0.0666 | 0.055 | – | 0.0652 | 0.0661 | 0.0611 | – | – | – | – |
| S201L | 0.047 | – | 0.06 | 0.073 | 0.0506 | – | – | 0.0744 | 0.0779 | 0.0564 | 0.0602 | 0.0615 | 0.0621 | 0.0637 | 0.0574 | 0.0745 | 0.0609 | – | – |
| A207Y | 0.0611 | 0.0509 | – | – | 0.0528 | – | 0.0699 | – | 0.0815 | – | – | – | – | 0.0699 | – | – | – | – | – |
| A207V | 0.0569 | – | – | 0.06 | – | 0.0657 | 0.0713 | 0.0555 | 0.0702 | – | 0.0687 | 0.0651 | 0.0657 | 0.0701 | 0.0628 | 0.0807 | – | – | 0.0622 |
| A207E | 0.101 | 0.0576 | – | – | – | 0.0517 | 0.0582 | – | – | 0.0673 | – | – | – | 0.1 | – | – | 0.0714 | – | – |
